According to article PMC10668032:
The other results are listed elsewhere or left out. At the low end of the ranking the order means little.

molecular target: SIX1 homeodomain (reference allele) (UniProt Q15475); test: universal protein binding microarray; conditions: Universal all-10-mer PBM (8x60K, AMADID 030236), 300 nM GST-tagged protein, Alexa Fluor 488 anti-GST; buffer, salt, pH and temperature not stated; high values mean tight binding; most listed sequences are background and not binding sites; double strand, one strand shown

| Sequence | binding signal [E-score] |
| --- | --- |
| ATCCTTAG | 0.283 |
| CCAGAGCC | -0.132 |
| AGCACAAG | -0.274 |
| AAGGATTG | 0.0414 |
| CCTGGCAA | -0.118 |
| CCACGCGG | -0.0852 |
| AGCGGCGC | -0.279 |
| CAGTGCAA | -0.0851 |
| AAGTGCCA | -0.173 |
| AGTCCCAG | -0.153 |
| GGTATATA | 0.384 |
| ACTACAAG | -0.196 |
| AGTAGTCC | -0.101 |
| ATCCTGTA | 0.128 |
| CATTCGCA | -0.132 |
| ATCACTAA | 0.166 |
| AATCAATC | 0.122 |
| TAATTTAA | -0.147 |
| GCTTATAA | -0.0372 |
| TATGGACA | 0.0876 |
| ATTTTGCC | -0.157 |
| CCCAGACC | -0.014 |
| GGAGCAGA | 0.0396 |
| AGATTGTA | 0.108 |
| CATTGAGA | 0.0549 |

| Sequence | binding signal [E-score] |
| --- | --- |
| AGAGACAG | -0.0578 |
| GCATAACC | -0.106 |
| AAGAGCTG | 0.0703 |
| CCCTGGTC | 0.0462 |
| TACGCGGA | 0.119 |
| TACTACGA | 0.0307 |
| ATAAGGCG | -0.104 |
| ACGAAGTC | -0.317 |
| AACGCATG | -0.103 |
| CACACAGG | 0.0155 |
| CAGCGACA | -0.0166 |
| CCGCGGGC | 0.062 |
| GCACAATA | 0.141 |
| CCCCGTAG | 0.176 |
| ATACCTGG | 0.27 |
| CCCGCTCG | 0.146 |
| AGCTAATC | 0.129 |
| ATTTTGGC | -0.192 |
| AGATCGTC | 0.222 |
| AGCGCCAT | -0.232 |
| ACTGCACC | -0.114 |
| TTATGAAA | -0.0689 |
| CTTAATCC | 0.195 |
| CATCTGTC | 0.092 |
| GAGGACCC | -0.0906 |

| Sequence | binding signal [E-score] |
| --- | --- |
| AGCGAAGC | -0.291 |
| AGAGCCCC | -0.022 |
| GGCTCTGA | -0.0456 |
| GGTTAGGA | 0.0125 |
| ACCGATGA | 0.17 |
| AGGGTAAG | 0.066 |
| CCGGGAAG | -0.141 |
| ATTCGACA | -0.0107 |
| GGGATGAC | 0.13 |
| AAAAGCGG | -0.203 |
| GGGTCACC | -0.0147 |
| AAATCCCG | 0.0304 |
| CTTTGGAA | -0.161 |
| CGAAGACG | -0.109 |
| AGGTACTG | -0.0683 |
| GGCTGCGA | -0.163 |
| AAGATGGG | -0.085 |
| CTGACTGA | -0.1 |
| CGGCGACC | 0.000575 |
| TACTATGA | 0.12 |
| GAGTCCGA | -0.0844 |
| CGTACTAC | -0.0306 |
| GAACAGCA | -0.18 |
| GATTTTGC | -0.0829 |
| CTGCCCAC | -0.199 |

| Sequence | binding signal [E-score] |
| --- | --- |
| CTAGAATC | -0.0571 |
| AGTGTCCA | 0.0234 |
| AGCACATG | -0.251 |
| TACGAGTA | 0.117 |
| AGGTCCGG | -0.142 |
| CGGTGACA | 0.103 |
| CACCAGGG | 0.0326 |
| GTACAAAA | -0.231 |
| CCGTACGA | -0.0297 |
| ACCTTGTA | 0.0115 |
| CGCCCACG | -0.0689 |
| AAGAATAC | 0.214 |
| TGGGCCCA | -0.225 |
| ATTTGAAC | -0.0561 |
| ACTCTGAG | -0.033 |
| CACGGTCA | -0.197 |
| ATTGGAAG | -0.267 |
| ACCACTAT | 0.112 |
| GATACCAA | 0.43 |
| GTATCAGA | 0.466 |
| AACAGTAT | 0.196 |
| ACAGCTGC | -0.213 |
| GGATATAC | 0.406 |
| CGGTATGC | -0.0276 |
| CCTAACAC | 0.129 |

| Sequence | binding signal [E-score] |
| --- | --- |
| CGGGAGAG | 0.015 |
| ATGGAGGA | 0.155 |
| CGTATAAC | 0.204 |
| AGTGTGTA | -0.014 |
| AATTACGG | -0.171 |
| CGCGGTAG | 0.0556 |
| AGATCCCT | 0.292 |
| ACGTGAGG | -0.0151 |
| TTAGGGAA | -0.227 |
| AGTGTTCG | -0.108 |
| CTTCCTCC | -0.152 |
| CCAGTACC | -0.052 |
| GAATCTCC | 0.0692 |
| CAGGCGGG | -1e-05 |
| AGTACAAC | -0.0315 |
| ATGAGACC | 0.295 |
| AAAGCAAT | 0.00415 |
| GCACTGGC | -0.124 |
| AATCGATC | 0.138 |
| ACGCGTGC | -0.225 |
| AGCTCGCG | -0.0933 |
| CCGTAAAA | -0.0266 |
| GCCGCGCC | -0.102 |
| ACCATTAA | -0.0435 |
| CTTATGTC | -0.0727 |

| Sequence | binding signal [E-score] |
| --- | --- |
| AAGGGAGT | -0.0708 |
| GGCACTCA | -0.172 |
| TTGCAAAA | -0.136 |
| AGAGACGA | 0.0998 |
| AAACTTGG | -0.0663 |
| CATTGCTA | -0.0124 |
| AGTCTAGG | -0.218 |
| GTGGTCAA | -0.188 |
| AGAACGGA | 0.152 |
| GTATATAC | 0.316 |
| CTTGCGAC | 0.0198 |
| TCAAAAGA | -0.00461 |
| TCGGAAGA | -0.0895 |
| CAGGACTG | -0.136 |
| CGAGGTAG | -0.0176 |
| CTGAACAG | -0.0809 |
| AATACAGC | 0.0583 |
| GCGTCAGC | -0.196 |
| AACGCTTC | -0.273 |
| AAACGGTG | 0.0199 |
| ATCACGCG | 0.229 |
| ACAGCTAG | -0.101 |
| ACTCAAAT | -0.211 |
| ACCGCGCC | -0.197 |
| GGAACAAC | -0.269 |

| Sequence | binding signal [E-score] |
| --- | --- |
| CTATTCTA | -0.0429 |
| GACGTCGA | -0.113 |
| ATGAGATA | 0.262 |
| AGACGACC | -0.108 |
| CCTATGTC | -0.114 |
| GATAGGTA | 0.325 |
| GAATGATA | 0.412 |
| ACCCGCGC | 0.118 |
| ACAAAGCC | -0.311 |
| CAATTGGA | -0.0926 |
| GGAACGAC | -0.301 |
| ATGCTCTA | -0.0177 |
| GCGGCCGC | -0.0849 |
| AATCTACC | 0.0996 |
| AAATCATG | -0.0525 |
| CAGTAACC | 0.00862 |
| ACTTACCT | -0.0658 |
| GTGTTCAA | -0.000595 |
| ATAGATAT | 0.389 |
| CGTCGTGC | -0.169 |
| CACTATGG | 0.0509 |
| GTTGGCTA | -0.281 |
| CGAGGCCC | -0.163 |
| CGTTAAAG | -0.102 |
| GGCTAATA | 0.201 |

| Sequence | binding signal [E-score] |
| --- | --- |
| CATCACGA | -0.0199 |
| AAATTCGA | -0.131 |
| CCATAGAG | -0.0844 |
| TCAGCAGA | -0.0658 |
| ACACCTGT | 0.277 |
| GCGTGGTA | 0.0657 |
| AAAGAGGA | 0.13 |
| GCTCGTAC | -0.074 |
| CTAGCGGC | -0.0633 |
| AATATGTA | 0.0617 |
| CCTTTCCC | -0.149 |
| GCTCTAAA | -0.202 |
| ATTTGAGA | 0.132 |
| AAATATGC | 0.0709 |
| GCCTAAGA | -0.172 |
| GAGTACCC | 0.0537 |
| AATCCTCA | -0.00873 |
| CAACCCCA | -0.0787 |
| AGTGGTTG | -0.216 |
| CGGTGTTA | 0.312 |
| ACTGGGTC | -0.225 |
| AGATGGGC | -0.093 |
| AGCAGCTA | -0.0667 |
| CAGCTACC | -0.0466 |
| AAATTACT | -0.101 |

| Sequence | binding signal [E-score] |
| --- | --- |
| CGTATCCA | 0.403 |
| CAGCACCG | 0.0319 |
| TACGGCGA | 0.177 |
| GCGTCGCC | -0.22 |
| AACCCGGA | 0.215 |
| ACGACTAA | -0.199 |
| GCGCCGTA | 0.000735 |
| ACAACGAC | -0.202 |
| GACTAACC | -0.204 |
| CGACATGC | 0.082 |
| ACCTAGAG | 0.0359 |
| CCAGACTA | -0.0472 |
| CCAGCTTA | -0.00604 |
| AATGTCTA | -0.0129 |
| ATGAGGAG | -0.0427 |
| CTACCCGC | 0.0519 |
| AGAAGGCC | -0.175 |
| CGACGGCC | -0.283 |
| ACGAGACG | 0.131 |
